Experimental data: the supplement of paper PMC11417369
± gives the standard deviation of the averaged measurements. The list shows a part of the results.

The sequences below were run on PfAP2-LT AP2 domain (GST-tagged) (assay: gcPBM binding intensity (ln(normalized median fluorescence intensity)); higher = stronger DNA binding).
Summary of the method: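 GST-tagged P. falciparum DNA-binding domains produced in E. coli were incubated for 1 h on an Agilent 4 × 180k array of primer-extended double-stranded 36-bp intergenic genomic probes with negative controls. Binding intensity is the highest Masliner-normalised natural-log median intensity across replicate spots of either probe orientation, with bound protein detected by Alexa488 anti-GST antibody at 488 nm.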

| Sequence | gcPBM binding intensity (ln) |
| --- | --- |
| AGGAACATAAGCAATGTATAAACATAAAACTATAAT [CACACA_negctrl_site1832] | 9.06 ± 0.53 |
| AAAAAAAAAAAAAACACACACACACCCACATATACA [CACACA_site2663] | 10.2 ± 0.16 |
| AATCAAAATATATCTACACACATTTAAGTAACACAT [CACACA_site3482] | 9.08 ± 0.34 |
| TTATAATAAAGAGGAGTGCAAAAAAAAAAAAAAAAA | 8.68 ± 0.35 |
| TAAATATCAAAACACACACACAAAAGTGAATAAATA [CACACA_site3762] | 9.62 ± 0.36 |
| TTATTATATTAAAATTGTACTTGCTTTCAATATGAT [XGTACX_site5305] | 8.51 ± 0.48 |
| TTATAATATTATAAAATAACATTTATTAATTATTGG [CACACA_negctrl_site1794] | 8.26 ± 0.44 |
| TAAACGTTATATAGTGCATGTCATATTTTATTATAT [TGCATGCA_site935] | 8.8 ± 0.35 |
| TTCCCTCCTCAAAATTGTACTAGAATAATAACATAA [XGTACX_site8765] | 8.3 ± 0.4 |
| TACACGCTAAAATACACACACACACCCACATATATA [CACACA_site4153] | 10.2 ± 0.11 |
| TTTTTTAAACATATTATGTGTATTACATAGTTATGC [XGTACX_negctrl_site596] | 8.73 ± 0.42 |
| AAAAAAAAAAAAAACACACACACAAGAGTATATAAA [CACACA_site6580] | 9.73 ± 0.49 |
| TTATATATTTTTTTTTGTACATAGAAGAGGGAAAAA [XGTACX_site2178] | 8.21 ± 0.5 |
| ATGAATTTATTACATTGTACATTTTTAAAAGGTTAC [XGTACX_site124] | 8.59 ± 0.49 |
| TATACATACATACATACACACACACCGATATATACA [CACACA_site8184] | 9.89 ± 0.11 |
| TTCCAAAAAATTATTACACACATATGGGCACATATA [CACACA_site679] | 8.96 ± 0.37 |
| ACAAAAAAACATGAAACACACACAAATATATATATA [CACACA_site8566] | 9.56 ± 0.39 |
| TGCCTATTTTGGATGTGTACACATATATATATTTAT [XGTACX_site6741] | 9.19 ± 0.42 |
| ACGCTAATTATGTGCACACAAATTAAAGGTCTACAA [CACACA_site147] | 9.58 ± 0.34 |

| Sequence | gcPBM binding intensity (ln) |
| --- | --- |
| AATGTTATTTGTTTATCACACATTAGGATGTTTATA [CACACA_site5710] | 8.93 ± 0.39 |
| ATTCTATAATATAAGAGTACTTATTTTTTTTAATTT [XGTACX_site7671] | 8.4 ± 0.47 |
| TATAAAATTAAACAAAGTACTAGACATATATATAGA [XGTACX_site3247] | 8.8 ± 0.4 |
| TATATTATAAACATATGTACATATGTATAAATACAT [XGTACX_site722] | 8.77 ± 0.32 |
| ATTATTAATATTATATGTACGCACTATATCAAGGCT [XGTACX_site6468] | 8.83 ± 0.51 |
| AACATATATATATACACACACATATATATATGAAAT [CACACA_site279] | 9.54 ± 0.24 |
| TATACCAATGAATGAGTGCAAAGAAGATAAGGAAAA | 9.01 ± 0.49 |
| AAGGTATTTATAACTACACACTTATTTATAACCTAA [CACACA_site6194] | 8.7 ± 0.43 |
| ACTTATTGTGGTTTTGCATGTAGCATTTTTACATAC [TGCATGCA_site247] | 9.19 ± 0.44 |
| AATAAAATGAAATGAAATAAAAAAAAAAAAAAAATG [TGCATGCA_negctrl_site305] | 8.56 ± 0.49 |
| AGCTATGTATTCTACACACACATACAGACATATATA [CACACA_site3428] | 9.46 ± 0.38 |
| TTTGCATTTCTTAATTGTACTTAAAAAAAAAATAAT [XGTACX_site758] | 8.07 ± 0.32 |
| AATCATTTTATTATCCTAACAAAAAAAAAATATATT [CACACA_negctrl_site115] | 8.27 ± 0.47 |
| ACGATGCATTAATCTGCACACCACAACAAAACGTTT [CACACA_site899] | 9.07 ± 0.33 |
| ACAACGCGTTAAATGTGTACATATTTATAAGTATAT [XGTACX_site8777] | 9.21 ± 0.52 |
| TATATATATATATATATTGAAATTTATAATAATATT [TGCATGCA_negctrl_site407] | 9.115 ± 0.05 |
| AACATAGAAACGTTATGTACATATTGAAGGATATTA [XGTACX_site6015] | 9.05 ± 0.43 |
| AAATATTTATACTATACACACCCAATTTAAAAAAAA [CACACA_site6669] | 8.82 ± 0.3 |
| ATTTTTTTATGTACACAAAAAAAAAAAAAAATTTAA [CACACA_negctrl_site1028] | 8.41 ± 0.36 |

| Sequence | gcPBM binding intensity (ln) |
| --- | --- |
| AAAAGAATATAAAGATACATTGTGATATGGGACAAA [CACACA_negctrl_site405] | 8.87 ± 0.49 |
| GAAATAATTTCATATACACACATATACATACATACA [CACACA_site1358] | 9.16 ± 0.35 |
| TATATATATATTGAAGTGCAAAATACTGTACGTAAT | 8.94 ± 0.43 |
| TTAATTCTACTTATTACACACATATTAATCAAAAAT [CACACA_site1478] | 8.71 ± 0.29 |
| TATATATATATAAACAGTACACAAATTGTAAATAAA [XGTACX_site8268] | 9.04 ± 0.49 |
| TTTTCATTTTTCTTTACACACATATATTTATTTATA [CACACA_site7119] | 8.97 ± 0.39 |
| GTTAATATTTACTACACACACTTAAAATATGTATAT [CACACA_site4194] | 9.15 ± 0.31 |
| ATATTATAATTAAAACGTACGTATTTATGAATTCAT [XGTACX_site1047] | 8.73 ± 0.42 |
| TACATAAATTAAAACACACACACACTAAAAAAAAAA [CACACA_site7130] | 9.79 ± 0.4 |
| TATTAATTAAACCATACACACATAATTTTTTTATAA [CACACA_site843] | 8.66 ± 0.4 |
| ATGGAAGGAAACAATAAAAAAAAAAAAAAATATATA [XGTACX_negctrl_site594] | 8.51 ± 0.58 |
| TTTTTTATTTGACAAGCACACACTTAAATATATATA [CACACA_site3358] | 8.85 ± 0.38 |
| CATTTAAAGGACAAGCTGCACTTACAAAATAAAAAA | 8.57 ± 0.55 |
| AAATGAGTATTCATATGTACACAAATAAAAAATTAA [XGTACX_site2968] | 8.8 ± 0.45 |
| AGGTTAAAAATAAATACACACATTTTATGTCTGTAT [CACACA_site996] | 9.06 ± 0.4 |
| TTTTTTTTTTAATAAAGTACATATAAATTACCTAAT [XGTACX_site4434] | 8.15 ± 0.45 |
| ACTATACAGTTATACACACACATATATATATAATAT [CACACA_site310] | 9.46 ± 0.32 |
| ATCTTTGGAAATTTATGTACTTATATTTATATTGTA [XGTACX_site6606] | 8.77 ± 0.49 |
| ATTTCTAGTTTAAGATGTACTTTAATAAAAATTATT [XGTACX_site4820] | 8.38 ± 0.43 |
